Experimental data as given in the supplement of paper PMC3334620.
The full ranking holds about 33,000 sequences; the median of “E-score (-0.5 to 0.5)” is about -0.054, and the highest 2% start at about 0.35. The list shows a part of the results.

target: T1, Stb5 (UniProt P38699); experiment: PBM E-score (8-mer binding enrichment) (E-score (-0.5 to 0.5)); higher = stronger / more preferred TF binding; most listed sequences are background and not binding sites; settings: protein concentration: 200 nM; construct: GST-full length
T1 sequence: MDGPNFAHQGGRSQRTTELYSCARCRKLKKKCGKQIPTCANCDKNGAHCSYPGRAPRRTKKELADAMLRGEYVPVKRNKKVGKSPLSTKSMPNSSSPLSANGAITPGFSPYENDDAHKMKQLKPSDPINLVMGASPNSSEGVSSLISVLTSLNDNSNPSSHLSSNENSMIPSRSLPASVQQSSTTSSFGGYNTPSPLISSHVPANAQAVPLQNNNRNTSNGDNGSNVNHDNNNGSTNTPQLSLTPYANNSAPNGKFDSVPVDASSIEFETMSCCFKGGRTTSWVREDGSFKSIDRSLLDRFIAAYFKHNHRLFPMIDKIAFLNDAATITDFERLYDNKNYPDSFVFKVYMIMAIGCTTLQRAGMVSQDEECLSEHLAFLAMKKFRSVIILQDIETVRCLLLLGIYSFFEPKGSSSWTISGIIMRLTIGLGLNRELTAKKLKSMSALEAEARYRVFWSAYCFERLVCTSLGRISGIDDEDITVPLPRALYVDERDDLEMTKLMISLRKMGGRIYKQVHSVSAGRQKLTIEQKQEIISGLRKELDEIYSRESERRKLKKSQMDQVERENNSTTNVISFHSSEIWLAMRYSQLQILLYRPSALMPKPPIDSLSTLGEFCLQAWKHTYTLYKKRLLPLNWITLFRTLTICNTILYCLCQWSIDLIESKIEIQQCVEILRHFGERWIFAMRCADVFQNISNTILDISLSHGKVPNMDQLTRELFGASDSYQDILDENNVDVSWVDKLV
Outline: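 Masliner-normalised scans of fluorescent anti-GST signal were the basis for scoring. That signal came from GST-tagged yeast transcription factors applied at about 100-200 nM to double-stranded universal all-10-mer Agilent arrays on fresh or once-stripped slides. Each ungapped eight-base word, pooled with its reverse complement, received an E-score from the Universal PBM Analysis Suite.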

Row | Sequence | PBM E-score
1 | ACATAACT | 0.106
2 | GGTTGACA | -0.0684
3 | GCTGAGCC | 0.00669
4 | AGAAAATG | -0.165
5 | AGCTTCAG | -0.297
6 | AAGAAAGG | -0.0583
7 | CATGCGAG | 7e-05
8 | ATCGAAGC | -0.103
9 | ACAGGGAT | -0.183
10 | ACCAACCA | -0.0405
11 | CAGGGACC | -0.251
12 | CGTCGTTC | 0.066
13 | GAATGCGC | 0.15
14 | CGGTGTGA | 0.441
15 | CCTGGGGA | -0.268
16 | ATGACTAA | -0.114
17 | ACCGATGC | 0.325
18 | CAAGAGCG | -0.0654
19 | GTAGACAC | 0.111
20 | AATGTGGA | -0.214
21 | CATTCAGG | -0.182
22 | ACAGGCAA | -0.178
23 | CATAGGGC | -0.0131
24 | GACGGGTA | -0.044
25 | ATTGCCAA | -0.119

Row | Sequence | PBM E-score
26 | AGAGCGGC | 0.272
27 | ATATGATC | -0.0325
28 | GCCAAAGA | -0.13
29 | GTGAAGCA | -0.165
30 | GTGGGGTA | -0.00964
31 | GAGGTTGC | -0.0524
32 | AGAACTCC | 0.0555
33 | TGTTCGAA | -0.0722
34 | AACATGAA | -0.0586
35 | ACTCGTTG | -0.151
36 | GAAATCGA | 0.00973
37 | CCCTTCGA | -0.132
38 | AGCTTCAA | -0.144
39 | TAGTGTCA | -0.163
40 | AGAATCCT | -0.233
41 | AAGACAGC | 0.0552
42 | ATTCACCC | 0.0273
43 | ATTTTAAC | 0.144
44 | TCCCGGAA | 0.234
45 | GGAATTAC | 0.258
46 | CCGTAATA | 0.188
47 | CGAGGCAC | -0.0847
48 | CTCGTTTC | -0.214
49 | CGAGAGAA | -0.241
50 | TACGTTGA | -0.17

Row | Sequence | PBM E-score
51 | CGCTCTCA | -0.0898
52 | AATAGGAT | 0.0764
53 | GTTCGAAA | 0.0207
54 | AAGTTTTA | -0.121
55 | ATAGGTTC | -0.00207
56 | AACCCCCT | -0.247
57 | TACAGTAA | -0.219
58 | CTTATGAA | 0.0638
59 | CGTTATCA | 0.042
60 | ATGACGGG | 0.257
61 | ATTACATG | 0.136
62 | CATGGAAG | -0.0777
63 | AAAGTAGC | -0.112
64 | AAGCAATC | -0.152
65 | ACTCTGTA | -0.104
66 | AACGCCAT | -0.106
67 | CCAACGCG | -0.0276
68 | ATGACCAT | -0.0475
69 | CTGCATGA | -0.304
70 | AACGACGT | -0.0504
71 | CACGAAGG | -0.0971
72 | CCCCTAAC | -0.247
73 | CCCGGCGA | 0.272
74 | CATCACAG | -0.0936
75 | CTATCTTC | -0.151

Row | Sequence | PBM E-score
76 | GCAAACGA | -0.147
77 | ACGCGAGA | -0.336
78 | GAAGCGGA | 0.282
79 | AGGACTAT | -0.102
80 | GAGCAAAC | -0.144
81 | ACACCCGA | 0.243
82 | GGAGTACC | 0.0138
83 | ATGAAATC | -0.0913
84 | AAGATTCC | -0.0837
85 | GCTGAACC | -0.161
86 | CGTGTATC | 0.0402
87 | CCCCCTAC | -0.135
88 | CCAATGAA | -0.185
89 | ATATAGTC | 0.128
90 | ACCACTGA | -0.202
91 | GGAACCGA | 0.0422
92 | CATTGACA | -0.198
93 | AGTATATG | -0.0748
94 | CGCCCGGC | 0.31
95 | AGGGCGTG | -0.145
96 | CCCTCGTA | -0.192
97 | AGTTCTCC | -0.0814
98 | ATCCATGG | 0.0265
99 | CTAAATCC | 0.299
100 | GCTTGTAA | 0.0749

Row | Sequence | PBM E-score
101 | CGGGATTC | 0.219
102 | CTTTGGTC | -0.0406
103 | AACGCTAA | -0.114
104 | CACGTCGA | -0.191
105 | AGCACTAA | -0.212
106 | AGGTAGGC | -0.212
107 | CATTGAGG | -0.164
108 | CCTTGGTA | 0.0875
109 | CACAGCAC | -0.168
110 | ACAAGTAC | 0.0459
111 | AATTTTCG | 0.00251
112 | AGGACAAG | -0.167
113 | GGCTACAC | -0.0423
114 | GGATCAAA | 0.032
115 | GACAGGTA | 0.0126
116 | AGGGAGAG | -0.358
117 | GGATCGCC | -0.125
118 | AAAGACGA | -0.0756
119 | GAAGGGAC | 0.105
120 | ATGTTTCA | -0.152
121 | CCGGGACC | 0.278
122 | AAGACCAT | -0.18
123 | GAGATCAA | -0.112
124 | CTCACAAG | -0.286
125 | CGTATATA | -0.0338

Row | Sequence | PBM E-score
126 | CCTATAGA | -0.0772
127 | CCCCGAAG | 0.247
128 | AAGCTGAT | -0.00913
129 | ATGTCTGC | 0.0734
130 | GCACTATA | 0.153
131 | AACGACCC | -0.0753
132 | TCGCGTCA | -0.112
133 | CCCGGAGC | 0.159
134 | GTCCATTA | -0.0228
135 | CCCACTCC | 0.0762
136 | AAGCCACA | -0.222
137 | CATCTCCG | 0.276
138 | GCACACCA | -0.251
139 | ATTCTTCC | 0.0595
140 | CCGCCATA | 0.322
141 | AGAGTTCC | -0.0784
142 | ACCTTGTC | -0.111
143 | AGAGTCCG | 0.378
144 | ACTCCGTG | 0.352
145 | GATATACA | 0.0751
146 | ATTACGCA | 0.0584
147 | CTATGCCC | 0.204
148 | AAACTGGG | -0.247
149 | GACCATCC | -0.175
150 | AAACCTCT | 0.015

Row | Sequence | PBM E-score
151 | CGAGGTCC | 0.0488
152 | ATTCCATG | -0.0707
153 | CTCCTAAG | 0.0338
154 | GGGTGATA | 0.219
155 | CACAGACA | -0.0778
156 | CCGATAAA | 0.281
157 | ATGCATTG | -0.141
158 | AGGGGCCG | 0.167
159 | CAGATGGA | -0.116
160 | CGCGATAA | -0.0936
161 | AACAGGTC | -0.188
162 | TGACAGAA | -0.146
163 | ATGAAAAC | 0.116
164 | ACTACACA | 0.048
165 | GAACGCGA | -0.227
166 | CGAATTCG | 0.195
167 | ATATGTAC | 0.06
168 | CGCGCACC | 0.178
169 | AGAGCAGA | -0.138
170 | ACCGTATA | 0.0568
171 | CAGAGGCA | -0.171
172 | AGACGGAT | 0.149
173 | AAGCCGCT | 0.134
174 | ATAGAAAA | -0.128
175 | ACTCTCAC | -0.133

Row | Sequence | PBM E-score
176 | AGATACTG | -0.265
177 | CATAATAA | -0.00495
178 | AATTGCGT | 0.029
179 | AATATTGC | 0.0636
180 | CACACAGC | -0.085
181 | CCTGAATA | 0.00959
182 | AAATGTGA | -0.209
183 | AGCGCTCA | -0.129
184 | CCTTGTCA | -0.122
185 | AATGACGA | 0.0145
186 | CCGGACAC | 0.283
187 | ATCTTGCA | -0.104
188 | GAAGCACC | 0.155
189 | GACTACTC | -0.0349
190 | CCGTGCAG | 0.15
191 | ATCGGATC | 0.195
192 | CAATCCAA | -0.204
193 | AGGCGTTA | 0.122
194 | ACGTGTAC | -0.196
195 | AGTATAAT | -0.0572
196 | CTCGCCGA | -0.0352
197 | TACTACCA | -0.159
198 | CAAAGATA | -0.131
199 | CGTCCAGA | 0.00993
200 | GCATATCC | -0.197

Row | Sequence | PBM E-score
201 | ACCAAAGA | -0.0979
202 | TAGCAATA | 0.0214
203 | ATTGGGAG | -0.135
204 | CACTACTC | -0.0372
205 | AGAACAAT | -0.197
206 | CGTATAGC | 0.224
207 | GTCGTAAA | 0.0847
208 | AAAGTGTG | -0.269
209 | AAAACTCC | 0.292
210 | CCAACACC | 0.119
211 | AGTTACAG | -0.151
212 | ACACGGTC | 0.115
213 | CACGATAG | -0.164
214 | CCAAATGA | -0.169
215 | AGCGGAAT | 0.228
216 | CGAACGCC | 0.153
217 | GATCATTA | -0.0339
218 | GCAGTCAA | -0.0992
219 | AGCTGGGC | -0.0962
